# According to the supplement of paper PMC8728848:
# The other results are listed elsewhere or left out.
# B1: Tamarinin (protein)
# chain: CDDSARAGNIVVYWGQGGSDNSEGSLKEACKSGHYNMIVLQQLIVYDDGRDPDLNLGAHCSDCTKLEEQIKYCQNKDIKILLQIGQVVPTQEDVKDVTKNLSEYLLKNFFSGKSGPLGEVYLNGIDIASVPEGNNLKFDELVEALNDSSTERRIYLSASPLCVYPDYYLNKAIQTEKLDFLFVQFFYQNPCIYTEGNPENLFEAMKTWTKNVPESMIFMALPATPNLDGYIPPRVLNKEILPAVSEASNFAGVMIFDRYFDRFRKYSSKIK
# Assays:
# Experiment in all cases: glycan array binding signal (z-score within array); higher = stronger binding
# Settings in all cases: glycan notation: IUPAC condensed, linker removed
# GlcNAc(b1-3)Man = target: GlcNAc(b1-3)Man
# Summary of the method: (§1)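 From the Consortium for Functional Glycomics database, 3228 arrays were curated, keeping only those whose protein sequence was available. Binding is given as a within-array Z-score averaged across arrays sharing a protein sequence and across linkers. Negative Z-scores can be read as non-binding.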
# [1] = target: GlcNAc(b1-3)[GlcNAc(b1-4)][GlcNAc(b1-6)]GlcNAc
# Summary of the method: as §1
# [2] = target: GlcNAc(b1-3)[GlcNAc(b1-6)]Gal(b1-4)GlcNAc
# Summary of the method: as §1
# [3] = target: GlcNAc(b1-3)[GlcNAc(b1-6)]GalNAc
# Summary of the method: as §1
# [4] = target: GlcNAc(b1-4)Gal(b1-4)GlcNAc
# Summary of the method: as §1
# GlcNAc(b1-4)GlcNAc = target: GlcNAc(b1-4)GlcNAc
# Summary of the method: as §1
# [5] = target: GlcNAc(b1-4)GlcNAc(b1-4)GlcNAc
# Summary of the method: as §1
# [6] = target: GlcNAc(b1-4)GlcNAc(b1-4)GlcNAc(b1-4)GlcNAc(b1-4)GlcNAc
# Summary of the method: as §1
# [7] = target: GlcNAc(b1-4)GlcNAc(b1-4)GlcNAc(b1-4)GlcNAc(b1-4)GlcNAc(b1-4)GlcNAc
# Summary of the method: as §1
# [8] = target: GlcNAc(b1-4)[GlcNAc(b1-6)]GalNAc
# Summary of the method: as §1
# [9] = target: GlcNAc(b1-6)Gal(b1-4)GlcNAc
# Summary of the method: as §1
# GlcNAc(b1-6)GalNAc = target: GlcNAc(b1-6)GalNAc
# Summary of the method: as §1
# [10] = target: GlcNAc6S(b1-3)Gal(b1-4)GlcNAc
# Summary of the method: as §1
# Kdn(a2-3)Gal(b1-3)GalNAc = target: Kdn(a2-3)Gal(b1-3)GalNAc
# Summary of the method: as §1
# Kdn(a2-3)Gal(b1-3)GlcNAc = target: Kdn(a2-3)Gal(b1-3)GlcNAc
# Summary of the method: as §1
# Kdn(a2-3)Gal(b1-4)Glc = target: Kdn(a2-3)Gal(b1-4)Glc
# Summary of the method: as §1
# Kdn(a2-3)Gal(b1-4)GlcNAc = target: Kdn(a2-3)Gal(b1-4)GlcNAc
# Summary of the method: as §1
# [11] = target: Kdn(a2-3)Gal(b1-4)[Fuc(a1-3)]GlcNAc
# Summary of the method: as §1
# Kdn(a2-6)Gal(b1-4)GlcNAc = target: Kdn(a2-6)Gal(b1-4)GlcNAc
# Summary of the method: as §1
# [12] = target: Man(a1-2)Man(a1-2)Man(a1-3)Man
# Summary of the method: as §1
# [13] = target: Man(a1-2)Man(a1-2)Man(a1-6)[Man(a1-3)]Man
# Summary of the method: as §1
# Man(a1-2)Man(a1-3)Man = target: Man(a1-2)Man(a1-3)Man
# Summary of the method: as §1
# [14] = target: Man(a1-2)Man(a1-3)[Man(a1-2)Man(a1-6)]Man
# Summary of the method: as §1
# [15] = target: Man(a1-2)Man(a1-3)[Man(a1-2)Man(a1-6)]Man(a1-6)[Man(a1-2)Man(a1-2)Man(a1-3)]Man
# Summary of the method: as §1
# [16] = target: Man(a1-2)Man(a1-3)[Man(a1-2)Man(a1-6)]Man(a1-6)[Man(a1-2)Man(a1-2)Man(a1-3)]Man(b1-4)GlcNAc(b1-4)GlcNAc
# Summary of the method: as §1
# [17] = target: Man(a1-2)Man(a1-3)[Man(a1-6)]Man(a1-6)[Man(a1-2)Man(a1-3)]Man(b1-4)GlcNAc(b1-4)GlcNAc
# Summary of the method: as §1
# [18] = target: Man(a1-2)Man(a1-6)[Man(a1-3)]Man(a1-6)[Man(a1-2)Man(a1-2)Man(a1-3)]Man
# Summary of the method: as §1
# [19] = target: Man(a1-2)Man(a1-6)[Man(a1-3)]Man(a1-6)[Man(a1-2)Man(a1-2)Man(a1-3)]Man(b1-4)GlcNAc(b1-4)GlcNAc
# Summary of the method: as §1
# Man(a1-3)[Man(a1-6)]Man = target: Man(a1-3)[Man(a1-6)]Man
# Summary of the method: as §1
# [20] = target: Man(a1-3)[Man(a1-6)]Man(a1-6)[Man(a1-2)Man(a1-3)]Man(b1-4)GlcNAc(b1-4)GlcNAc
# Summary of the method: as §1
# [21] = target: Man(a1-3)[Man(a1-6)]Man(a1-6)[Man(a1-3)]Man
# Summary of the method: as §1
# [22] = target: Man(a1-3)[Man(a1-6)]Man(a1-6)[Man(a1-3)]Man(b1-4)GlcNAc(b1-4)GlcNAc
# Summary of the method: as §1
# [23] = target: Man(a1-3)[Man(a1-6)]Man(b1-4)GlcNAc(b1-4)GlcNAc
# Summary of the method: as §1
# [24] = target: Man(a1-3)[Man(a1-6)]Man(b1-4)GlcNAc(b1-4)[Fuc(a1-6)]GlcNAc
# Summary of the method: as §1
# Man(a1-6)Man = target: Man(a1-6)Man
# Summary of the method: as §1
# Man(b1-4)GlcNAc = target: Man(b1-4)GlcNAc
# Summary of the method: as §1
# MurNAc(b1-4)GlcNAc = target: MurNAc(b1-4)GlcNAc
# Summary of the method: as §1
# Neu5Ac(a2-3)Gal = target: Neu5Ac(a2-3)Gal
# Summary of the method: as §1
binder,measurement,setting,value
B1,glycan array binding signal (z-score),GlcNAc(b1-3)Man,0.095
same,glycan array binding signal (z-score),[1],-0.144
same,glycan array binding signal (z-score),[2],-0.549
same,glycan array binding signal (z-score),[3],-0.175
same,glycan array binding signal (z-score),[4],-0.247
same,glycan array binding signal (z-score),GlcNAc(b1-4)GlcNAc,-0.047
same,glycan array binding signal (z-score),[5],0.61
same,glycan array binding signal (z-score),[6],0.015
same,glycan array binding signal (z-score),[7],0.114
same,glycan array binding signal (z-score),[8],-0.392
same,glycan array binding signal (z-score),[9],-0.474
same,glycan array binding signal (z-score),GlcNAc(b1-6)GalNAc,0.307
same,glycan array binding signal (z-score),[10],-0.331
same,glycan array binding signal (z-score),Kdn(a2-3)Gal(b1-3)GalNAc,-0.07
same,glycan array binding signal (z-score),Kdn(a2-3)Gal(b1-3)GlcNAc,-0.357
same,glycan array binding signal (z-score),Kdn(a2-3)Gal(b1-4)Glc,0.233
same,glycan array binding signal (z-score),Kdn(a2-3)Gal(b1-4)GlcNAc,-0.382
same,glycan array binding signal (z-score),[11],-0.027
same,glycan array binding signal (z-score),Kdn(a2-6)Gal(b1-4)GlcNAc,-0.441
same,glycan array binding signal (z-score),[12],0.086
same,glycan array binding signal (z-score),[13],14.1
same,glycan array binding signal (z-score),Man(a1-2)Man(a1-3)Man,0.032
same,glycan array binding signal (z-score),[14],-0.253
same,glycan array binding signal (z-score),[15],0.539
same,glycan array binding signal (z-score),[16],-0.478
same,glycan array binding signal (z-score),[17],-0.495
same,glycan array binding signal (z-score),[18],-0.298
same,glycan array binding signal (z-score),[19],0.144
same,glycan array binding signal (z-score),Man(a1-3)[Man(a1-6)]Man,0.04
same,glycan array binding signal (z-score),[20],-0.295
same,glycan array binding signal (z-score),[21],0.27
same,glycan array binding signal (z-score),[22],-0.186
same,glycan array binding signal (z-score),[23],-0.38
same,glycan array binding signal (z-score),[24],0.156
same,glycan array binding signal (z-score),Man(a1-6)Man,0.096
same,glycan array binding signal (z-score),Man(b1-4)GlcNAc,-0.404
same,glycan array binding signal (z-score),MurNAc(b1-4)GlcNAc,-0.096
same,glycan array binding signal (z-score),Neu5Ac(a2-3)Gal,-0.207
